The whole screen tested about 310,000 compounds, of which about 14,000 (4.5%) showed an effect of 50% or more. Effects have a minus sign here. The list shows a part of the results.
The compounds below were run against human ether-à-go-go-related gene (hERG) potassium channel (human, UniProt Q12809) (assay: primary screen, population patch clamp on CHO cells stably expressing hERG).
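Also: peak tail current of the secondary pulse compared with the same well before compound.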

Sequence of human ether-à-go-go-related gene (hERG) potassium channel (Q12809 whole entry, looked up): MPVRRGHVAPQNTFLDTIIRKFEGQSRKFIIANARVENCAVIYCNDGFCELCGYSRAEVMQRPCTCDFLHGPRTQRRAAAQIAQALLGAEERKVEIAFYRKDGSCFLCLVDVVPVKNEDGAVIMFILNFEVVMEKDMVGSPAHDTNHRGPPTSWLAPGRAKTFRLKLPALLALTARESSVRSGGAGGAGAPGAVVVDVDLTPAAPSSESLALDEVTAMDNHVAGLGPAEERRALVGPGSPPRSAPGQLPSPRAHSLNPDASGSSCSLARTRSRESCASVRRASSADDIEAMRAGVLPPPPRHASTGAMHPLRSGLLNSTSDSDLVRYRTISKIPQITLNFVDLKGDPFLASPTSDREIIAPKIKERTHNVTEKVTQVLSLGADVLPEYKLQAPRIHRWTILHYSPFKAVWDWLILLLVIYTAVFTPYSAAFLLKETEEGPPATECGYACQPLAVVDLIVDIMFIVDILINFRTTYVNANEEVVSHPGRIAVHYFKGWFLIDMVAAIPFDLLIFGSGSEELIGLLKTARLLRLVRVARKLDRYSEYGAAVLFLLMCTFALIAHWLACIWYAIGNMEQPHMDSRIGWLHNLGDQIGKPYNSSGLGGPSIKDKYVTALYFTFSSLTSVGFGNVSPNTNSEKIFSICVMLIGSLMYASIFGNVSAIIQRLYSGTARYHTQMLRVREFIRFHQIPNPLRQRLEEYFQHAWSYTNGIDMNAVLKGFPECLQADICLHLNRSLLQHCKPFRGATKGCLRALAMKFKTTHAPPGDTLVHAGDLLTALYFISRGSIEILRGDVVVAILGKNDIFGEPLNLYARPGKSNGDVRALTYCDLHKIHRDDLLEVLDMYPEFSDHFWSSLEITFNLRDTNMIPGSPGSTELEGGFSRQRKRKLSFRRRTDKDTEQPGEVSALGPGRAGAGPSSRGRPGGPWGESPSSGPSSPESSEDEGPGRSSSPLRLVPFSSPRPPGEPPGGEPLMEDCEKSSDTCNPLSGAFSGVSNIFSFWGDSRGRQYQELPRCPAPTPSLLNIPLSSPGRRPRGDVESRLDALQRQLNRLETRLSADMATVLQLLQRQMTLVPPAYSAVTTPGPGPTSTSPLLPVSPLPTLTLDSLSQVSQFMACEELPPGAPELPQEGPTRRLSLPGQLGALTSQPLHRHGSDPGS

Row | SMILES | hERG current change (%, negative = inhibition) at 10uM
1 | COc1cccc(C(=O)N2CCN(Cc3ccccn3)CC2)c1OC.O=C(O)C(=O)O | -8.88%
2 | O=C(c1cccs1)N(Cc1cc2ccccc2[nH]c1=O)c1ccccc1 | -11.8%
3 | CC1CN(S(=O)(=O)c2cccc(C(=O)NCCC3=CCCCC3)c2)CC(C)O1 (stereo not drawn) | -36.5%
4 | CCN(Cc1ccccc1)S(=O)(=O)c1ccc(F)cc1 | -1.52%
5 | COc1ccc2c(CC(=O)OCC(=O)NC(=O)c3cccn3C)coc2c1 | 2.74%
6 | O=C(CCc1ccccc1)NCC1OCCc2ccccc21 (stereo not drawn) | -8.64%
7 | CCOc1ccc(CN2CCN(C(=O)c3ccccc3)CC2)cc1 | -39.5%
8 | C=C(C)Cn1c(-c2cccs2)n[nH]c1=S | 15.3%
9 | Cc1nn(-c2ccccc2)c2nc(C(F)(F)F)[nH]c(=O)c12 | 30.1%
10 | Cl.O=C(NCCN1CCOCC1)c1cc(S(=O)(=O)Nc2ccccc2F)c(Cl)cc1Cl | 5.95%
11 | COc1ccccc1CC(=O)NNC(=O)c1ccc(C(C)(C)C)cc1 | 15.2%
12 | CCO[C@H]1OC(C(=O)NC2CC2)=C[C@@H](c2ccccc2)[C@@H]1CCCO | 3.01%
13 | COc1ccc(N(CC(=O)Nc2ccc(S(=O)(=O)N3CCOCC3)cc2)S(=O)(=O)c2ccccc2)cc1 | 11.3%
14 | COc1ccc(N2CCN(C(=O)c3cc(-c4cc(OC)ccc4OC)nc4ccccc34)CC2)cc1 | -1.23%
15 | COc1ccccc1C(CNC(=O)C1CC(=O)N(Cc2ccc(C)cc2)C1)N1CCCC1 (stereo not drawn) | 2.47%
16 | O=C(NC(=O)c1ccc(Cl)cc1)Nc1cc(N2CCCCC2)ncn1 | 8.37%
17 | CCN(c1ccc(NC(=O)CSCc2c(C)noc2C)cc1)C(C)C | -7.72%
18 | NC(=O)c1nsc(C(=O)N(CC(=O)NCc2ccc(F)cc2)Cc2ccco2)c1N | -10.8%
19 | COC(=O)c1ccc(/C=N\n2c(C)nnc2C)cc1 | 18.9%
20 | Cc1occc1C(=O)N/N=C/c1ccccn1 | 9.8%
21 | CC(C)CCNC(=O)NC(=O)COC(=O)/C=C/c1cc(Br)ccc1F | 19.4%
22 | CCn1c(CN2CCOCC2)nnc1SCC(=O)Nc1cccc(C)c1 | -4.87%

Row | SMILES | hERG current change (%, negative = inhibition) at 10uM
23 | CC(C)C[C@@]12C(=O)N(c3cccc(Br)c3)C(=O)N1[C@H](c1ccc(F)cc1)[C@@H]1C(=O)N(C3CCCCC3)C(=O)[C@@H]12 | 31.9%
24 | O=C(N/N=C(/c1ccccc1)c1ccncc1)c1ccc2c(c1)OCO2 | -14.6%
25 | O=S(=O)(Nc1nccs1)c1ccc(F)cc1 | 34.8%
26 | CCc1cc(C(=O)N2CCCC(C(=O)c3ccc(Cl)cc3)C2)no1 (stereo not drawn) | -8.19%
27 | COc1ccc(S(=O)(=O)N(CC(=O)NCCC(C)C)c2ccccc2)cc1OC | 8.08%
28 | COc1ccc(NC(=O)C2CCCCN2N)cc1OCC(C)C.O=C(O)C(=O)O (stereo not drawn) | -5.25%
29 | Cc1nnc(SCc2nc3sc(C(=O)O)c(C)c3c(=O)[nH]2)s1 | 27.3%
30 | CC(C(=O)Nc1ccccc1)C(=O)Nc1ccccc1 | 15.2%
31 | CCOc1ccc(/C=C2\NC(=S)NC2=O)cc1 | 12.8%
32 | COc1nsnc1NS(=O)(=O)c1ccc(NC(=S)NC(=O)c2cccnc2)cc1 | 25.5%
33 | O=S(=O)(c1cccs1)N1CN(CC2CCCO2)c2nc3ccccc3nc21 (stereo not drawn) | -16.1%
34 | O=c1c(O)c(-c2cccs2)oc2ccc(Cl)cc12 | 4.99%
35 | COc1ccc(-c2c(-c3cc(OC)cc(OC)c3)n(C)c3ccc(Br)cc23)cc1 | 18.6%
36 | CCOP(=O)(Cc1cc(C(=O)CC)c(C)o1)OCC | 12.8%
37 | CCn1c(CNC(=O)c2ccccc2OC)nnc1SCC(=O)c1ccc(F)cc1 | -9.15%
38 | CCCOc1ccc(N2C(=O)CC(NNC(=O)c3ccc(COc4ccccc4)o3)C2=O)cc1 (stereo not drawn) | 7.79%
39 | O=C(Nc1ccc(Br)cc1)c1cc(-c2ccc3c(c2)OCO3)on1 | -5.31%
40 | O=S(=O)(NC1=NCCC1)c1cccc(NC(=S)NCCc2ccccc2)c1 | 5.47%
41 | COc1ccc(-c2cc(C3CCN(c4ncccc4[N+](=O)[O-])CC3)[nH]n2)cc1 | -5.85%
42 | COc1ccc(-c2nc(-c3cccc(C)c3)nc(N3CCN(C)CC3)c2C#N)cc1 | -8.67%
43 | COc1ccc(N(CC(=O)N/N=C/c2ccc3c(c2)OCO3)S(=O)(=O)c2ccc(NC(C)=O)cc2)cc1 | 14.7%
44 | COc1cc(C(=O)NC(=S)NNC(=O)c2cnccn2)cc(OC)c1OC | 9.65%

Row | SMILES | hERG current change (%, negative = inhibition) at 10uM
45 | O=C(/C=C/c1ccc(Br)cc1)NC1CCCCCC1 | -4.17%
46 | COc1ccc(CC(=O)NC(C)c2ccc3ccccc3c2)cc1 (stereo not drawn) | 14.6%
47 | CCn1c(=O)cc(SCC(=O)N2CCOCC2)c2ccccc21 | -11.9%
48 | CSc1ccccc1NC(=O)Nc1cccc(Cl)c1Cl | 11.3%
49 | Cc1cc(C)nc(SC2CCOC2=O)n1 (stereo not drawn) | 0.669%
50 | COc1ccc(NC(=O)N2CCCc3ccccc32)cc1 | -9.42%
51 | CCCCC(=O)NNC(=O)c1c(O)c2ccccc2[nH]c1=O | -6.65%
52 | CC(C)[C@H](NC(=O)c1ccccc1F)C(=O)NCc1ccc(S(N)(=O)=O)cc1 | 10.3%
53 | O=C(CC1SC(=Nc2ccccc2)N(CCO)C1=O)Nc1ccccc1 (stereo not drawn) | 21%
54 | O=c1c2cc(Br)ccc2nc(-c2ccc(Cl)cc2)n1O | 27.8%
55 | COc1cc(NC(=O)N2c3ccccc3Sc3ccccc32)c(C(=O)O)cc1OC | 13.8%
56 | CCOC(=O)C(=O)NCC(c1cccs1)S(=O)(=O)c1ccc(Cl)cc1 (stereo not drawn) | -18.2%
57 | Oc1[nH]c2ccccc2c1N=Nc1ccccc1 | 18.5%
58 | COCCn1c(SCc2csc(-c3ccccc3)n2)nc2ccccc21 | -9.09%
59 | C=CCN1C(=O)c2ccccc2C1(O)Cc1ccccc1 (stereo not drawn) | 16.5%
60 | COc1cc(/C=C/C(=O)Nc2nc3ccc(S(=O)(=O)NC(C)C)cc3s2)cc(OC)c1OC | -6.51%
61 | O=C(CC(SCCO)c1ccc2c(c1)OCO2)c1cccs1 (stereo not drawn) | -16.7%
62 | O=C(C[n+]1cc(Br)cc(Br)c1)c1ccccc1.[Br-] | 8.53%
63 | COc1ccc(O)c(-c2cc(C(F)(F)C(F)F)nc(-c3ccccc3)n2)c1 | 0.873%
64 | Cc1ccccc1N/N=C/c1sc(=O)n(Cc2cccc(C(=O)O)c2)c1Cl | 38.9%
65 | CC(c1ccccc1)N1CCN(C(=O)CCl)CC1.Cl (stereo not drawn) | 9.63%
66 | CCN(CC)CC#CCC(O)(c1ccccc1)C1CCCC1.Cl (stereo not drawn) | -11.7%

Row | SMILES | hERG current change (%, negative = inhibition) at 10uM
67 | O=C(O)c1cccc(N2C(=O)c3ccc(Oc4ccc(Cl)cc4)cc3C2=O)c1 | 12.8%
68 | CSc1nc(-c2ccccc2)nn1C(=O)c1ccco1 | -0.58%
69 | COc1ccc(-c2nc(SC(CC(=O)NCCO)c3cccs3)n[nH]2)cc1 (stereo not drawn) | -1.24%
70 | Cc1ccc(COc2ccccc2-c2cc(C(=O)N/N=C/c3cccnc3)[nH]n2)cc1 | 0.426%
71 | Cn1c(=O)c2c(ncn2CC(=O)OCC(=O)Nc2ccc(Cl)cc2Cl)n(C)c1=O | -21.1%
72 | Cc1c(C(=O)OCC(=O)N2CCCC2)cccc1[N+](=O)[O-] | 10.3%
73 | O=C(COC(=O)c1ccc(F)cc1)Nc1nc2ccc([N+](=O)[O-])cc2s1 | 17.1%
74 | O=C(CSc1n[nH]c(-c2ccccc2O)n1)NC1CCCCC1 | 7.36%
75 | Nc1cccc(P(=O)(c2ccccc2)c2ccccc2)c1 | 14.5%
76 | COC(=O)C1=C(C)N(CC(C)C)C(=O)/C1=C\c1cccs1 | -0.448%
77 | CCC(C(=O)N1CCC(N2CCCCC2)CC1)n1nc(C)c2sc3ccccc3c2c1=O (stereo not drawn) | -35.6%
78 | COc1ccc(C(NC(=O)CN2CCCCCC2)c2ccc(OC)cc2)cc1 | -65.9%
79 | COc1cc(C(=O)Nc2ccc(Br)cc2C(=O)c2cc(OC)c(OC)c(OC)c2)cc(OC)c1OC | 12%
80 | CCn1cc2nc(SCC(=O)Nc3ccc(F)cc3F)n(Cc3ccccc3)c(=O)c2n1 | -40%
81 | COc1cc(C(=O)NCC(c2ccco2)N2CCOCC2)cc(OC)c1OC (stereo not drawn) | 16.9%
82 | O=C(c1cc(-c2ccccc2)on1)N1CCN(Cc2ccc3c(c2)OCO3)CC1 | -50.1%
83 | COc1ccc(C2Nc3ccccc3C(=O)N2c2ccc(F)cc2)cc1CSc1ccccn1 (stereo not drawn) | -0.322%
84 | CC1=NN(C(C#N)c2ccccc2O)C(C)(C)C1 (stereo not drawn) | 17.9%
85 | C=C(C)c1cccc(C(C)(C)NC(=O)N2CC(C)OC(C)C2)c1 (stereo not drawn) | 3.77%
86 | Cc1ccc(C2=[N+]([O-])C3(CCCCC/C3=N\NC(N)=O)N(O)C2(C)C)o1 (stereo not drawn) | 9.8%
87 | CN(C)CCCCCCCCCCC(=O)/C=N/O.Cl | -9.03%

From article PMC4336329 (PLoS ONE, 2015)
